Measured values taken from publication PMC12677587.
Changes are numbered by the printed parent chain. In names and notes the source's numbering stands. Results are given in words; binding and its absence hold for the method and conditions named. Binding seen in cells or lysates may run through a third protein. Some binding calls cover weakened binding; strength is not graded here. For some assays here: Sequences can lack the tags named with a protein.

Sequences of proteins named here, by UniProt entry; tags and fusion partners are left off.
UniProt Q06609: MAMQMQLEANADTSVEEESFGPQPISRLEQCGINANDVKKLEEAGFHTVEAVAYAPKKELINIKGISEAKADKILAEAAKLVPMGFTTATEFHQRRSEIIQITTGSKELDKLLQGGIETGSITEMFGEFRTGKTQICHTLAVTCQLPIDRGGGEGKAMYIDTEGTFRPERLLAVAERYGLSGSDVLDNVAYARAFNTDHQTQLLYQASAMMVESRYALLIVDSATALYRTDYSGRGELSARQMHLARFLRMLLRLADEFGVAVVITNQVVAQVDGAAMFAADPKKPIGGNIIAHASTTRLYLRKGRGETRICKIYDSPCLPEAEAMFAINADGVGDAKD

T1: RFWD3-HA (UniProt Q6PCD5)
T1 sequence: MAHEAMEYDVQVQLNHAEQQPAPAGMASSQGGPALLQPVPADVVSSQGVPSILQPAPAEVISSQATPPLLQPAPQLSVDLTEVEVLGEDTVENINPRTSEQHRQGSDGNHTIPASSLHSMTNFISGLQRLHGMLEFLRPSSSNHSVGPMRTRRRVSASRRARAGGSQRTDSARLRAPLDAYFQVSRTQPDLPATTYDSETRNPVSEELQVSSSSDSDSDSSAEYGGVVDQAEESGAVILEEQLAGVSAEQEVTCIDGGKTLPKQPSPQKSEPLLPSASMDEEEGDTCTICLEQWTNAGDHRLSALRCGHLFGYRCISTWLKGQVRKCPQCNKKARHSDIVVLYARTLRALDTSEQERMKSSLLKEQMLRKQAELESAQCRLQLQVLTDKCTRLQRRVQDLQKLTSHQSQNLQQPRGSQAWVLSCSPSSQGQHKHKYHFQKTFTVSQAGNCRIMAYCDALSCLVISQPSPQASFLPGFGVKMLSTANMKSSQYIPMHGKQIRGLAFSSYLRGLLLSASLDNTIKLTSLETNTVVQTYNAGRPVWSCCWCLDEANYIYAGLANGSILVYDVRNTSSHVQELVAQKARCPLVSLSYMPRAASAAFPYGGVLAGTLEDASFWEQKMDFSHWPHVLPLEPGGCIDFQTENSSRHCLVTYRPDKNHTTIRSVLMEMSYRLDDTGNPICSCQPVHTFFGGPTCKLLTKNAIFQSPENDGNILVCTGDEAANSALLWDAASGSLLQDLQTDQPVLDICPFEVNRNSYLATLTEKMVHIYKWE

T2: endogenous RFWD3 (human (endogenous in HEK293T)) (UniProt Q6PCD5)
T2 sequence: T1 sequence

T3: FLAG-PP4R3A (UniProt Q6IN85)
T3 sequence: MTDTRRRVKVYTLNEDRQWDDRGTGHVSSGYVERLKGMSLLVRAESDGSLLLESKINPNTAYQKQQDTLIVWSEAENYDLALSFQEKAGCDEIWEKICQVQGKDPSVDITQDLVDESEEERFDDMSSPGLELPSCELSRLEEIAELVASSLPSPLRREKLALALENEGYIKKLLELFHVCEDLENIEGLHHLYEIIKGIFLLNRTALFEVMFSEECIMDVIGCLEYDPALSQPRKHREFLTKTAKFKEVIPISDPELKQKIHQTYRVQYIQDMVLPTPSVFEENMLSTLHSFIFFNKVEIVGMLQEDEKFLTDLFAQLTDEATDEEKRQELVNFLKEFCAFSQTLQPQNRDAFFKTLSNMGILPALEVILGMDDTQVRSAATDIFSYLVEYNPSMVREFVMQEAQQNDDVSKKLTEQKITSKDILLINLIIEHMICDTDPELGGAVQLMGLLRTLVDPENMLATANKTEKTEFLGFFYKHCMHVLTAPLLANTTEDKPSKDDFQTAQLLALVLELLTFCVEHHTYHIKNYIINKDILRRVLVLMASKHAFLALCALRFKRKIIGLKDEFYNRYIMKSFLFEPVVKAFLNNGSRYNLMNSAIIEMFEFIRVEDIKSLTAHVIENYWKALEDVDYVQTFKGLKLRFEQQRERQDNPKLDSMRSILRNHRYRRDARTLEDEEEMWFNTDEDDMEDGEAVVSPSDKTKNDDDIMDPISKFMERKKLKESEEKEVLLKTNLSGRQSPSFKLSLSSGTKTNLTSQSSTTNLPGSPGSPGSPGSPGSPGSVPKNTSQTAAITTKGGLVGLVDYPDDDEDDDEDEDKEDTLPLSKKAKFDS

B1: FLAG-UHRF1 (protein, UniProt Q96T88-1 1-793)
chain: MWIQVRTMDGRQTHTVDSLSRLTKVEELRRKIQELFHVEPGLQRLFYRGKQMEDGHTLFDYEVRLNDTIQLLVRQSLVLPHSTKERDSELSDTDSGCCLGQSESDKSSTHGEAAAETDSRPADEDMWDETELGLYKVNEYVDARDTNMGAWFEAQVVRVTRKAPSRDEPCSSTSRPALEEDVIYHVKYDDYPENGVVQMNSRDVRARARTIIKWQDLEVGQVVMLNYNPDNPKERGFWYDAEISRKRETRTARELYANVVLGDDSLNDCRIIFVDEVFKIERPGEGSPMVDNPMRRKSGPSCKHCKDDVNRLCRVCACHLCGGRQDPDKQLMCDECDMAFHIYCLDPPLSSVPSEDEWYCPECRNDASEVVLAGERLRESKKKAKMASATSSSQRDWGKGMACVGRTKECTIVPSNHYGPIPGIPVGTMWRFRVQVSESGVHRPHVAGIHGRSNDGAYSLVLAGGYEDDVDHGNFFTYTGSGGRDLSGNKRTAEQSCDQKLTNTNRALALNCFAPINDQEGAEAKDWRSGKPVRVVRNVKGGKNSKYAPAEGNRYDGIYKVVKYWPEKGKSGFLVWRYLLRRDDDEPGPWTKEGKDRIKKLGLTMQYPEGYLEALANREREKENSKREEEEQQEGGFASPRTGKGKWKRKSAGGGPSRAGSPRRTSKKTKVEPYSLTAQQSSLIREDKSNAKLWNEVLASLKDRPASGSPFQLFLSKVEETFQCICCQELVFRPITTVCQHNVCKDCLDRSFRAQVFSCPACRYDLGRSYAMQVNQPLQTVLNQLFPGYGNGR
B2: endogenous UHRF1 (protein, UniProt Q96T88 1-793)
chain: B1 chain
B3: FLAG-UHRF1^S661A (protein, UniProt Q96T88-1 1-793)
chain: B1 chain with S661A
B4: FLAG-UHRF1^S661D (protein, UniProt Q96T88-1 1-793)
chain: B1 chain with S661D
B5: UHRF1-HA (protein, UniProt Q96T88-1 1-793)
chain: B1 chain
B6: UHRF1^FP2A-HA (protein, UniProt Q96T88-1 1-793)
chain: B1 chain with F637A, P640A

Key:
[1] = molecular target: RAD51-HA (UniProt Q06609); test: co-IP; ectopically expressed tagged proteins in HEK293T; lysis in NETN buffer (20 mM Tris-HCl pH 7.5, 1 mM EDTA, 100 mM NaCl, 0.5% NP-40); anti-FLAG or anti-HA affinity beads, 3 h, 4 °C; washes with NETN with 200 mM NaCl; western blotting
[2] = molecular target: T1, RFWD3-HA; test: as above
[3] = molecular target: T2, endogenous RFWD3 (human (endogenous in HEK293T)); test: co-IP; endogenous UHRF1 and RFWD3 in HEK293T cells overexpressing RAD51 or RAD51^R254Q
[4] = molecular target: endogenous RAD51 (human (endogenous in HEK293T)) (UniProt Q06609); test: co-IP; endogenous proteins in HEK293T; NETN lysate, antibodies overnight at 4 °C, protein A/G agarose beads; washes with 200 mM NaCl; also in cells depleted of RAD51, RFWD3 or PP4C
[5] = molecular target: T2, endogenous RFWD3 (human (endogenous in HEK293T)); test: as above
[6] = molecular target: T3, FLAG-PP4R3A; test: co-IP; ectopically expressed tagged proteins in HEK293T; lysis in NETN buffer (20 mM Tris-HCl pH 7.5, 1 mM EDTA, 100 mM NaCl, 0.5% NP-40); anti-FLAG or anti-HA affinity beads, 3 h, 4 °C; washes with NETN with 200 mM NaCl; western blotting

Row | binding [1] | binding [2] | binding [6] | other results | Binder
1 | binds | binds |  |  | B1
2 |  |  |  | binding [3]: binds; binding [4]: binds; binding [5]: binds | B2
3 | binds | binds |  |  | B3
4 | binds | binds |  |  | B4
5 |  |  | binds |  | B5
6 |  |  | no binding |  | B6
